{"source": "patent US9676788B2", "about": "“Aza-epoxy-guaiane derivatives and treatment of cancer” (The United States of America, as represented by the …, priority 2014, dated 2017)", "key": {"[1]": {"system": "PC-3", "test": "NCI 60-cell line protocol, Prostate Cancer PC-3", "conditions": "PC-3 (Prostate Cancer); single dose 10 μM; two days exposure; SRB endpoint"}, "[2]": {"system": "NCI/ADR-RES", "test": "NCI 60-cell line protocol, Ovarian Cancer NCI/ADR-RES", "conditions": "single dose 10 μM, two days exposure, SRB endpoint"}, "[3]": {"system": "NCI-H460", "conditions": "NCI-H460 (Non-Small Cell Lung Cancer); single dose 10 μM; two days exposure; SRB endpoint"}, "[4]": {"system": "IGROVI", "test": "NCI 60-cell line protocol, Ovarian Cancer IGROVI", "conditions": "single dose 10 μM, two days exposure, SRB endpoint"}, "[5]": {"system": "U251", "test": "NCI 60-cell line protocol, CNS Cancer U251", "conditions": "single dose 10 μM, two days exposure, SRB endpoint"}, "[6]": {"system": "DU-145", "test": "NCI 60-cell line protocol, Prostate Cancer DU-145", "conditions": "DU-145 (Prostate Cancer); single dose 10 μM; two days exposure; SRB endpoint"}, "[7]": {"system": "HOP-62", "conditions": "HOP-62 (Non-Small Cell Lung Cancer); single dose 10 μM; two days exposure; SRB endpoint"}, "[8]": {"system": "A498 (renal cancer)", "test": "NCI 60-cell line protocol, Renal Cancer A498", "type": "cell-based, human", "conditions": "single dose 10 μM, two days exposure, SRB endpoint"}, "[9]": {"system": "NCI-H522", "conditions": "NCI-H522 (Non-Small Cell Lung Cancer); single dose 10 μM; two days exposure; SRB endpoint"}, "[10]": {"system": "786-0", "test": "NCI 60-cell line protocol, Renal Cancer 786-0", "conditions": "786-0 (Renal Cancer); single dose 10 μM; two days exposure; SRB endpoint"}, "[11]": {"system": "T-47D", "test": "NCI 60-cell line protocol, Breast Cancer T-47D", "conditions": "T-470 / T-47D (Breast Cancer); single dose 10 μM; two days exposure; SRB endpoint"}, "[12]": {"system": "COLO205", "test": "NCI 60-cell line protocol, Colon Cancer COLO205", "conditions": "single dose 10 μM, two days exposure, SRB endpoint"}, "[13]": {"system": "SNB-75", "test": "NCI 60-cell line protocol, CNS Cancer SNB-75", "conditions": "SNB-75 (CNS Cancer); single dose 10 μM; two days exposure; SRB endpoint"}, "[14]": {"system": "SNB-19", "test": "NCI 60-cell line protocol, CNS Cancer SNB-19", "conditions": "SNB-19 (CNS Cancer); single dose 10 μM; two days exposure; SRB endpoint"}, "[15]": {"system": "OVCAR-8", "test": "NCI 60-cell line protocol, Ovarian Cancer OVCAR-8", "conditions": "OVCAR-8 (Ovarian Cancer); single dose 10 μM; two days exposure; SRB endpoint"}, "[16]": {"system": "HCC-2998", "test": "NCI 60-cell line protocol, Colon Cancer HCC-2998", "conditions": "HCC-2998 (Colon Cancer); single dose 10 μM; two days exposure; SRB endpoint"}, "[17]": {"system": "HT29", "test": "NCI 60-cell line protocol, Colon Cancer HT29", "conditions": "single dose 10 μM, two days exposure, SRB endpoint"}, "[18]": {"system": "SK-OV-3", "test": "NCI 60-cell line protocol, Ovarian Cancer SK-OV-3", "conditions": "SK-OV-3 (Ovarian Cancer); single dose 10 μM; two days exposure; SRB endpoint"}, "[19]": {"system": "ACHN (renal cancer)", "test": "NCI 60-cell line protocol, Renal Cancer ACHN", "type": "cell-based, human", "conditions": "single dose 10 μM, two days exposure, SRB endpoint"}, "[20]": {"system": "CAKI-1", "test": "NCI 60-cell line protocol, Renal Cancer CAKI-1", "conditions": "CAKI-1 (Renal Cancer); single dose 10 μM; two days exposure; SRB endpoint"}, "[21]": {"system": "MDA-MB-231/ATCC", "test": "NCI 60-cell line protocol, Breast Cancer MDA-MB-231/ATCC", "conditions": "MDA-MB-231/ATCC (Breast Cancer); single dose 10 μM; two days exposure; SRB endpoint"}, "[22]": {"system": "NCI-H226", "conditions": "NCI-H226 (Non-Small Cell Lung Cancer); single dose 10 μM; two days exposure; SRB endpoint"}, "[23]": {"system": "U0-31", "test": "NCI 60-cell line protocol, Renal Cancer U0-31", "conditions": "U031 / U0-31 (Renal Cancer); single dose 10 μM; two days exposure; SRB endpoint"}, "[24]": {"system": "TK-10", "test": "NCI 60-cell line protocol, Renal Cancer TK-10", "conditions": "TK-10 (Renal Cancer); single dose 10 μM; two days exposure; SRB endpoint"}, "[25]": {"system": "HCT-116", "test": "NCI 60-cell line protocol, Colon Cancer HCT-116", "conditions": "HCT-116 (Colon Cancer); single dose 10 μM; two days exposure; SRB endpoint"}, "[26]": {"system": "BT-549", "test": "NCI 60-cell line protocol, Breast Cancer BT-549", "conditions": "BT-549 (Breast Cancer); single dose 10 μM; two days exposure; SRB endpoint"}, "[27]": {"system": "SN12C", "test": "NCI 60-cell line protocol, Renal Cancer SN12C", "conditions": "single dose 10 μM, two days exposure, SRB endpoint"}, "[28]": {"system": "OVCAR-5", "test": "NCI 60-cell line protocol, Ovarian Cancer OVCAR-5", "conditions": "OVCAR-5 (Ovarian Cancer); single dose 10 μM; two days exposure; SRB endpoint"}, "[29]": {"system": "NCI-H23", "conditions": "NCI-H23 (Non-Small Cell Lung Cancer); single dose 10 μM; two days exposure; SRB endpoint"}, "[30]": {"system": "SF-539", "test": "NCI 60-cell line protocol, CNS Cancer SF-539", "conditions": "SF-539 (CNS Cancer); single dose 10 μM; two days exposure; SRB endpoint"}}}
{"smiles": "C/C(=C\\C(=O)OC1C2C(C)CCC2C2(C)OC1(C(C)C)CC2NC(=O)CO)c1ccccc1", "note": "(stereo not drawn) [Compound 10]", "values": [{"measurement": "Growth Percent", "setting": "[1]", "value": 83.12, "unit": "%"}, {"measurement": "Growth Percent", "setting": "[2]", "value": 72.19, "unit": "%"}, {"measurement": "Growth Percent", "setting": "[3]", "value": 105.67, "unit": "%"}, {"measurement": "Growth Percent", "setting": "[4]", "value": 104.22, "unit": "%"}, {"measurement": "Growth Percent", "setting": "[5]", "value": 91.84, "unit": "%"}, {"measurement": "Growth Percent", "setting": "[6]", "value": 118.84, "unit": "%"}, {"measurement": "Growth Percent", "setting": "[7]", "value": 97.57, "unit": "%"}, {"measurement": "Growth Percent", "setting": "[8]", "value": "−24.59", "unit": "%"}, {"measurement": "Growth Percent", "setting": "[9]", "value": 92.53, "unit": "%"}, {"measurement": "Growth Percent", "setting": "[10]", "value": 93.47, "unit": "%"}, {"measurement": "Growth Percent", "setting": "[11]", "value": 89.34, "unit": "%"}, {"measurement": "Growth Percent", "setting": "[12]", "value": 107.4, "unit": "%"}, {"measurement": "Growth Percent", "setting": "[13]", "value": 102.12, "unit": "%"}, {"measurement": "Growth Percent", "setting": "[14]", "value": 108.35, "unit": "%"}, {"measurement": "Growth Percent", "setting": "[15]", "value": 61.25, "unit": "%"}, {"measurement": "Growth Percent", "setting": "[16]", "value": 103.84, "unit": "%"}, {"measurement": "Growth Percent", "setting": "[17]", "value": 98.69, "unit": "%"}, {"measurement": "Growth Percent", "setting": "[18]", "value": 109.87, "unit": "%"}, {"measurement": "Growth Percent", "setting": "[19]", "value": 27.88, "unit": "%"}, {"measurement": "Growth Percent", "setting": "[20]", "value": 99.02, "unit": "%"}, {"measurement": "Growth Percent", "setting": "[21]", "value": 99.61, "unit": "%"}, {"measurement": "Growth Percent", "setting": "[22]", "value": 90.67, "unit": "%"}, {"measurement": "Growth Percent", "setting": "[23]", "value": 17.49, "unit": "%"}, {"measurement": "Growth Percent", "setting": "[24]", "value": 109.09, "unit": "%"}, {"measurement": "Growth Percent", "setting": "[25]", "value": 100.8, "unit": "%"}, {"measurement": "Growth Percent", "setting": "[26]", "value": 116.58, "unit": "%"}, {"measurement": "Growth Percent", "setting": "[27]", "value": 84.62, "unit": "%"}, {"measurement": "Growth Percent", "setting": "[28]", "value": 118.88, "unit": "%"}, {"measurement": "Growth Percent", "setting": "[29]", "value": 97.74, "unit": "%"}, {"measurement": "Growth Percent", "setting": "[30]", "value": 91.23, "unit": "%"}]}
{"smiles": "CC1CCC2C1C(OC(=O)/C=C/c1ccccc1)C1(C(C)C)CC(NC(=O)CF)C2(C)O1", "note": "(stereo not drawn) [Compound 31]", "values": [{"measurement": "Growth Percent", "setting": "[1]", "value": 83.98, "unit": "%"}, {"measurement": "Growth Percent", "setting": "[2]", "value": 98.53, "unit": "%"}, {"measurement": "Growth Percent", "setting": "[3]", "value": 103.56, "unit": "%"}, {"measurement": "Growth Percent", "setting": "[4]", "value": 103.48, "unit": "%"}, {"measurement": "Growth Percent", "setting": "[5]", "value": 105.6, "unit": "%"}, {"measurement": "Growth Percent", "setting": "[6]", "value": 114.9, "unit": "%"}, {"measurement": "Growth Percent", "setting": "[7]", "value": 90.75, "unit": "%"}, {"measurement": "Growth Percent", "setting": "[8]", "value": 83.31, "unit": "%"}, {"measurement": "Growth Percent", "setting": "[9]", "value": 102.51, "unit": "%"}, {"measurement": "Growth Percent", "setting": "[10]", "value": 97.31, "unit": "%"}, {"measurement": "Growth Percent", "setting": "[11]", "value": 78.42, "unit": "%"}, {"measurement": "Growth Percent", "setting": "[12]", "value": 103.21, "unit": "%"}, {"measurement": "Growth Percent", "setting": "[13]", "value": 87.93, "unit": "%"}, {"measurement": "Growth Percent", "setting": "[14]", "value": 103.67, "unit": "%"}, {"measurement": "Growth Percent", "setting": "[15]", "value": 107.04, "unit": "%"}, {"measurement": "Growth Percent", "setting": "[16]", "value": 107.28, "unit": "%"}, {"measurement": "Growth Percent", "setting": "[17]", "value": 108.62, "unit": "%"}, {"measurement": "Growth Percent", "setting": "[18]", "value": 91.26, "unit": "%"}, {"measurement": "Growth Percent", "setting": "[19]", "value": 104.52, "unit": "%"}, {"measurement": "Growth Percent", "setting": "[20]", "value": 80.94, "unit": "%"}, {"measurement": "Growth Percent", "setting": "[21]", "value": 101.66, "unit": "%"}, {"measurement": "Growth Percent", "setting": "[22]", "value": 84.54, "unit": "%"}, {"measurement": "Growth Percent", "setting": "[23]", "value": 91.08, "unit": "%"}, {"measurement": "Growth Percent", "setting": "[24]", "value": 104.2, "unit": "%"}, {"measurement": "Growth Percent", "setting": "[25]", "value": 87.42, "unit": "%"}, {"measurement": "Growth Percent", "setting": "[26]", "value": 111.03, "unit": "%"}, {"measurement": "Growth Percent", "setting": "[27]", "value": 103.21, "unit": "%"}, {"measurement": "Growth Percent", "setting": "[28]", "value": 101.93, "unit": "%"}, {"measurement": "Growth Percent", "setting": "[29]", "value": 101.57, "unit": "%"}, {"measurement": "Growth Percent", "setting": "[30]", "value": 87.89, "unit": "%"}]}
